The whole screen tested about 310,000 compounds, of which about 11,000 (3.5%) were called active. This list was built around the results that the source calls inconclusive (neither active nor inactive); the mix of calls is not that of the screen. Calls follow the shape of the dose curve; as a rule, active = well fitted inhibition curve with a large enough effect; inconclusive = small, poorly fitted or top-dose-only effect, or effect the other way; inactive = flat fitted curve, though single readings scatter. Potencies of inconclusive entries are left out as doubtful fits.
Experiment: VP16 counterscreen qHTS for inhibitors of ROR gamma transcriptional activity;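 also: Gal4-VP16 expression switched on by copper sulfate through the metallothionein promoter; nearly all actives have a fitted effect of over 50% in size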
Conditions: Drosophila S2 Gal4-VP16 UAS-luciferase, luminescence, 20 h; series mostly up to 53.6 µM
Potency is read from the fitted curve at half-maximal effect; tags tell the direction and shape of the fitted curve.

Row | Structure (SMILES) | Potency
1 | CC(C)CCn1cnc2c(oc3nc4c(cc32)CCCC4)c1=O | inconclusive [inhibitor, single point]
2 | CCN1c2ccccc2NC2N=C(OC)C(c3ccccc3)C21 (stereo unspecified) | inactive
3 | Cc1cc(C(F)(F)F)nn1Cc1n[nH]c(=S)n1-c1ccc(Cl)cc1 | inconclusive [inhibitor, single point]
4 | CCCCNC(=O)Nc1cc(C)on1 | inconclusive [activator, single point]
5 | CC(C)(C)OC(=O)N1CCC[C@H]1C(=O)N/N=C/c1cccc2cccnc12 | inactive
6 | Cc1ccc(Sc2c(C=O)c3ccccc3n2C)cc1 | inconclusive [inhibitor, single point]
7 | Fc1ccc(/C=N/Nc2ccccn2)cc1 | inconclusive [inhibitor, single point]
8 | O=C(NNc1nc2ccccc2nc1C(F)(F)F)c1ccccc1 | active: 15.8 µM
9 | CCC1Oc2ccccc2N(CC(=O)NC2CCCCC2C)C1=O (stereo unspecified) | inactive
10 | COc1ccc(NC(=O)c2ccc(C)cc2)cc1 | inconclusive [inhibitor, single point]
11 | O=C(c1ccco1)N1CCC(c2nc3c(nnn3Cc3ccc(F)cc3)c(=O)[nH]2)CC1 | inactive
12 | Cc1cccc(-c2c3c(=O)n(C)c(=O)n(C)c3cn2C(C)C)c1 | inactive
13 | c1ccc(CNc2ccccn2)cc1 | inactive
14 | CCC(C)c1ccc(NC(=O)Nc2cccnc2)cc1 (stereo unspecified) | inconclusive [activator, partial curve]
15 | COc1ccc(S(=O)(=O)NN(C)c2ncc(C(F)(F)F)cc2Cl)cc1 | inconclusive [inhibitor, single point]
16 | COc1cccc(F)c1C(C[N+](=O)[O-])c1c(N)n(C)c(=O)n(C)c1=O (stereo unspecified) | active: 11.2 µM
17 | CN(C)S(=O)(=O)c1cccc(NC(=S)N/N=C/c2ccco2)c1 | active: 3.16 µM
18 | COc1ccc(NC(=O)c2cc(-c3ccccn3)nc3c(C)cc(C)cc23)c(C)c1 | inconclusive [inhibitor, single point]
19 | CCN1CC(CN(C)Cc2nc(-c3ccc(Cl)cc3)no2)CC1=O (stereo unspecified) | active: 10 µM
20 | O=C(N/N=C/c1ccc([N+](=O)[O-])o1)c1cc(-c2cccc(Br)c2)nc2ccccc12 | inconclusive [inhibitor, single point]
21 | COc1ccc(CC(=O)Nc2cccc(-c3nnc(-c4ccc(C)cc4)o3)c2)cc1OC | inconclusive [inhibitor, single point]
22 | Cc1ccc(O)c(NC(=O)/C=C/C(=O)O)c1 | inconclusive [inhibitor, single point]
23 | CC(C)(C)c1csc(NNC(=O)c2ccc(Cl)cc2)n1 | active: 7.08 µM
24 | COc1ccccc1NC(=O)C1CCCN(S(=O)(=O)c2ccc(-n3cnnn3)cc2)C1 (stereo unspecified) | inactive
25 | Cc1ccc(-c2csc(N3CCC(NS(=O)(=O)c4ccc5c(c4)OCCO5)CC3)n2)cc1 | inconclusive [inhibitor, single point]
26 | S=C(Nc1ccccc1)Nc1nc2ccccc2n1CCOc1ccccc1 | active: 7.08 µM

Row | Structure (SMILES) | Potency
27 | Cc1cccc(-n2c(C)cc(/C=N\NC(=O)c3cccs3)c2C)c1 | inconclusive [inhibitor, single point]
28 | COc1ccc(/C=C2\SC(=O)NC2=S)cc1OC | inconclusive [inhibitor, single point]
29 | Cc1ccc(N2C(=O)c3ccccc3NC2c2ccccc2O)cc1 (stereo unspecified) | inconclusive [inhibitor, single point]
30 | CCOc1ccc2nc(NC(=O)c3ccco3)sc2c1 | inconclusive [inhibitor, single point]
31 | O=C(NC(=S)Nc1ccccc1N1CCCCC1)c1ccc(F)cc1Cl | active: 3.16 µM
32 | C/C(=N\NC(=S)Nc1ccc(F)cc1)c1ccc2c(c1)OCCO2 | active: 3.98 µM
33 | COc1ccc(N2CSC3=C(C#N)C(c4ccc(OC)c(OC)c4)CC(=O)N3C2)c(OC)c1 (stereo unspecified) | inactive
34 | O=C1CCCC(=O)N1c1ccc(N2CCN(c3ccccc3)CC2)c([N+](=O)[O-])c1 | inactive
35 | O=C(NN1C(=O)c2cc(Br)ccc2NC1c1cc(Br)cc(Br)c1O)c1ccncc1 (stereo unspecified) | active: 7.94 µM
36 | Cc1ccc2nc3ccc(N4CCCC4)nn3c(=O)c2c1 | inactive
37 | Cc1ccc(-n2c(C)c([N+](=O)[O-])c3ccc(O)c(CN(C)C)c32)cc1 | inactive
38 | O=C(Nc1nc(-c2cccs2)cs1)c1cccc(S(=O)(=O)N2CCCCCC2)c1 | inconclusive [inhibitor, single point]
39 | O=C(Nc1ccc(-c2cn3ccccc3n2)cc1)c1ccco1 | inconclusive [inhibitor, single point]
40 | COc1cc2c(cc1OC)C(c1ccc(N)cc1)=NNC(=O)C2 | inactive
41 | CCOC(=O)C(NC(=O)C1C(C)N1S(=O)(=O)c1ccc(C)cc1)C(=O)OCC (stereo unspecified) | inactive
42 | CCN(CC)CCOC(=O)c1ccc(N/C=C(/C#N)c2nc(-c3cc4ccccc4oc3=O)cs2)cc1 | inconclusive [inhibitor, single point]
43 | Nc1ncc(Br)cc1S(=O)(=O)Nc1cc(C(F)(F)F)cc(C(F)(F)F)c1 | active: 22.4 µM
44 | COC(=O)Cc1ccc(NC(=S)Nc2ccccn2)cc1 | inconclusive [inhibitor, single point]
45 | C=C(C)C1Cc2cc3ccc(=O)oc3cc2O1 (stereo unspecified) | inconclusive [activator, single point]
46 | O=C(CSc1nnc(-c2cnccn2)n1Cc1ccco1)c1ccccc1 | inactive
47 | CN1C=CC(=C2C(=O)c3ccccc3C2=O)C=C1 | inconclusive [inhibitor, single point]
48 | O=C(Cc1coc2ccc3ccccc3c12)Nc1nccs1 | inconclusive [inhibitor, single point]
49 | COc1ccc(-c2c3c([nH]c(=S)c2C#N)CCC3)cc1 | inconclusive [inhibitor, single point]
50 | CC(=O)Nc1nc(=O)c2ccccc2s1 | inconclusive [inhibitor, single point]
51 | CCC(CC)c1nnc(NC(=O)C2CC(=O)N(CCc3ccc(F)cc3)C2)s1 (stereo unspecified) | inconclusive [inhibitor, single point]
52 | CCc1ccc(/C=C2\SC(=S)N(CCCC(=O)Nc3ccccn3)C2=O)cc1 | active: 1.41 µM

Row | Structure (SMILES) | Potency
53 | CCOC(=O)c1c(C)[nH]c(C(=O)CSc2ccccc2)c1C | inconclusive [inhibitor, single point]
54 | CN(C)c1ccc(C(=O)N=c2sccn2C)cc1[N+](=O)[O-] | inactive
55 | Nc1ccc(-n2cc(-c3ccccc3)[nH]c2=S)cc1 | inconclusive [inhibitor, single point]
56 | O=C(CCS(=O)(=O)c1ccccc1)Nc1nc2cc3c(cc2s1)OCO3 | inconclusive [inhibitor, full curve]
57 | O=C(COC(=O)c1c2c(nc3ccccc13)/C(=C\c1cccs1)CCC2)Nc1ccccc1 | inconclusive [inhibitor, partial curve]
58 | COc1ccc(C2/C=C\CN(Cc3ccco3)C(C)C(=O)N2Cc2ccc(F)cc2)cc1 (stereo unspecified) | inactive
59 | O=C1N=C(N2CCOCC2)S/C1=C1\C(=O)N(Cc2ccccc2)c2ccccc21 | inactive
60 | COCCCNC(=S)N1CCN(c2nc(-c3cccc(OC)c3)cs2)CC1 | inconclusive [inhibitor, single point]
61 | Cc1cccc(OCC(O)CN2C(C)(C)CC(O)CC2(C)C)c1 (stereo unspecified) | inactive
62 | CCCCOc1ccc(C(=O)NNC(=O)C2C3CCC(C3)C2C(=O)O)cc1 (stereo unspecified) | inconclusive [inhibitor, single point]
63 | COc1ccc2c(C)c(Cc3ccccc3)c(=O)oc2c1OC | inactive
64 | O=C1CC(c2cccc(Cl)c2)CC(O)=C1C=NCCCO (stereo unspecified) | inactive
65 | CCOC(=O)c1sc2nc(C)[nH]c(=S)c2c1C | active: 0.794 µM
66 | CN1/C(=C/C(=O)C2CC2)C(C)(C)c2ccccc21 | inconclusive [inhibitor, partial curve, poor fit]
67 | CCc1ccccc1N(CC(=O)N1CCCCC1)S(=O)(=O)c1ccccc1 | inconclusive [activator, single point]
68 | S=C(NCc1cccs1)Nc1ccc(Cl)cc1 | inconclusive [inhibitor, single point]
69 | CC(C)CCC(CC(C)O)c1n[nH]c(=S)n1-c1ccccc1 (stereo unspecified) | inconclusive [inhibitor, single point]
70 | CCOc1c(CNCCCSc2nc(C)cc(C)n2)cccc1OC | inconclusive [inhibitor, single point]
71 | COc1ccccc1NC(=O)CC(=O)CSc1nnc(-c2ccc(C)cc2)n1-c1ccccc1 | active: 10 µM
72 | O=C(O)c1ccc(S(=O)(=O)c2ccc3c(c2)C(=O)N(c2ccccc2[N+](=O)[O-])C3=O)cc1 | inactive
73 | Cc1ccc(S(=O)(=O)c2nc(S(C)(=O)=O)sc2N2CCC(C)CC2)cc1 | inconclusive [inhibitor, single point]
74 | Cc1cccc(CNc2cc(-c3cccnc3)ncn2)c1 | inactive
75 | COc1ccc(-c2nn(-c3ccccc3)cc2/C=C2/SC(=S)N(CCC(=O)O)C2=O)c(C)c1 | inconclusive [inhibitor, single point]
76 | COc1ccc(Nc2nc(N)nc(CSC(=S)N3CCOCC3)n2)cc1 | inconclusive [activator, partial curve]

Reference: PubChem BioAssay AID2546 (National Center for Advancing Translational Sciences (NCATS), 2010)
